Binding signal data for 14 molecules are collected here from article PMC12136788.

Some of the results follow.

T1: UNK ZnF1-6 (called full-length) (human, UniProt Q9C0B0 30-357)
T1 sequence: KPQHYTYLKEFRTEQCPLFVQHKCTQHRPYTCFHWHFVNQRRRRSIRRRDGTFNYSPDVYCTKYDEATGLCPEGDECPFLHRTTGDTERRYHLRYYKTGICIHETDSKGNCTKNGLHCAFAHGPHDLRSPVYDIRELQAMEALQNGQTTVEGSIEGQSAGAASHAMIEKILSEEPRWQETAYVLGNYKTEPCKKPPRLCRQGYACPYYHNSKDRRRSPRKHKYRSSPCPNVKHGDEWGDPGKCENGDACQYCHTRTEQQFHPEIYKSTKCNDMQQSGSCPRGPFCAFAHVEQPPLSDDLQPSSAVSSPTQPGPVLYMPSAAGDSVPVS

B1: chrX:153695679:153695780:+|3pUTR|ENSG00000130821|msi1|total|mutant (ssRNA)
RNA: GGGAGUUCUACAGUCCGACGAUCGGCAGCAGAACCAAGGCAAAUAUUUCAGCUGGGCUAUACCCCUCUCCCCAUCCCUGUUACCGAAGCUCCGAGAGCCAGCCAGCAAUGGAACCUUCUGGUUCCUGCGCCAAUCGCCACCAGCAACAGAGGAUUGAGCAUCA
B2: ENSG00000136451:be:win_1151|CDS|ENSG00000136451|bound_else_gene|NA|bound_elsewhere_windowed (ssRNA)
RNA: GGGAGUUCUACAGUCCGACGAUCUGUGCCAAACCUCCACGGCUGCUACGACACCUGUGACUCUCACUACUCCAUUCAGUAUAACAUCCUCUGUGUCGUCUGGGACUAUGUCAAACCCAGUCACAGUGGCAGCUGCAAUGAGCACAACAGAGGAUUGAGCAUCA
B3: chr4:112276399:112276500:-|3pUTR|ENSG00000145365|unk|FALSE|unique (ssRNA)
RNA: GGGAGUUCUACAGUCCGACGAUCUUAUUCCCUGUGAUGCCCAGAGUAAUGGCCCAUCCAAAGAUGUCCAGAUGUCCAUGUGCUAGUCUCCAGAACUUGUAACUGUGUUGUUAUGUGGCAAAGGGGAAUGAAGGCUGCAGAUGGCAACAGAGGAUUGAGCAUCA
B4: chr17:1004907:1005008:-|3pUTR|ENSG00000159842|msi1|total|mutant (ssRNA)
RNA: GGGAGUUCUACAGUCCGACGAUCAAGAGGGGCCAGGCUUCCUGGAGGGUGACUGAUGUGGCCGAAGCAGGUGUCCAGGCAGGCCGGCUGCAGCCAGGAGCUCCCUGGCACCGCAGGACCUCGUGGUACUCUUGCCUCCGAUUUCAACAGAGGAUUGAGCAUCA
B5: ENSG00000136451:be:win_401|CDS|ENSG00000136451|bound_else_gene|NA|bound_elsewhere_windowed (ssRNA)
RNA: GGGAGUUCUACAGUCCGACGAUCGCAUCUUGUCAACAGUCACUACAUCUUCCUCGGGCACCAACCCCAGUAGCAGUGCCAGCACCACAGCUAUGCCAGUGACCCAGUCUGUCAAGAAACCCAGUAAGCCUGUCAAGAAGAACCCAACAGAGGAUUGAGCAUCA
B6: chr1:205620050:205620151:-|CDS|ENSG00000158711|unk|FALSE|unique (ssRNA)
RNA: GGGAGUUCUACAGUCCGACGAUCGCCAAUGGAACUUCCAGAGAAUUUGUCACUGGAGCCUAAAGACCAGGAUUCAGUCUUGCUAGAAAAGGACAAAGUAAAUAAUUCAUCAAGAUCCAAGAAACCCAAAGGGUUAGAACUGGCCAACAGAGGAUUGAGCAUCA
B7: ENSG00000123684:stop:overlap|stop_codon|ENSG00000123684|stop_codon|NA|stop_codon (ssRNA)
RNA: GGGAGUUCUACAGUCCGACGAUCCAUUUUUGUCAGGCUAUAUGUGGUACAACAUCAUUCAGUAUUUUUACCAUUGCCUGUUUUAGGAAUUGACGUGGACUUGUCAAGGUCACCGUAGGAGUUCAGACUUUCUUUCAUAAGUGUCAACAGAGGAUUGAGCAUCA
B8: chr12:121847077:121847190:-|CDS|ENSG00000158104|unk|FALSE|unique (ssRNA)
RNA: GGGAGUUCUACAGUCCGACGAUCAAAAACCUGCAGUUCCACCGCUUCUGGUCCGUGGAUGACACGCAGGUGCACACGGAAUAUAGCUCUCUGCGAUCCAUUGUGGUGGCCAACUAUGAAGAGUCCAUCAAGAUGCCCAUCAAUCAACAGAGGAUUGAGCAUCA
B9: chr11:61865769:61866452:+|3pUTR|ENSG00000134824|msi1|total|mutant (ssRNA)
RNA: GGGAGUUCUACAGUCCGACGAUCUGCAGCCUGGUCACCCGGCAUCACCCCCGCUUUGGUUCUUCAGAUGCUCUUGGGGUUCACCGGGGCAGGUCCCCGUCGGGCAGGGCCCCUGACCCUCCCGGCCUGGCUUCACUCUCCCUGCAACAGAGGAUUGAGCAUCA
B10: chr8:47773456:47773635:-|3pUTR|ENSG00000253729|msi1_unk|total|mutant (ssRNA)
RNA: GGGAGUUCUACAGUCCGACGAUCGUUUUUUCCUUUCAUUUUAUUCUCUUCCCGUUUUGACAUUUUAUGACCGAUUUGCUCUCCCGAAGGAAACGUCUUUAUUCCGGAGGGCAAAAAUUUUGGUCACCGCAUUCACUUUUGCUACAACAGAGGAUUGAGCAUCA
B11: chr14:102081487:102081564:-|3pUTR|ENSG00000080824|msi1_unk|FALSE|overlapping (ssRNA)
RNA: GGGAGUUCUACAGUCCGACGAUCGAAGAUAAGAUUUCUGUCUACUAAGUGAUGCUGUGAUACCUUAGGCACUAAAGCAGAGCUAGUAAUGCUUUUUGAGUUUCAUGUUGGUUUAUUUUCACAGAUUGGGGUAACGUGCACUGUCAACAGAGGAUUGAGCAUCA
B12: chr8:116854276:116854437:-|CDS|ENSG00000164754|unk|total|mutant (ssRNA)
RNA: GGGAGUUCUACAGUCCGACGAUCAGGAAGCUAAUUGUUGACAGUGUCAAAGAGUUGGACCGCAAGACAAUCCGAGCCCAACUCCGUGAUUAUUCAGAUAUUGUUACUACUUUGGAUCUGGCACCGCCCACCAAGAAAUUGAUGCAACAGAGGAUUGAGCAUCA
B13: chr7:106091418:106091523:-|3pUTR|ENSG00000008282|msi1|FALSE|unique (ssRNA)
RNA: GGGAGUUCUACAGUCCGACGAUCUUUACACCUUAAGCCUUAACAUGUAUCUUCAUUCAGAAAACAGUUAUAUUGUCAUACCAUAGUAGGAAGAAAAACCUUUAUUUGGAAUAUACACUACUGUAAGUUUGUACAGAUCAUAUACAACAGAGGAUUGAGCAUCA
B14: chr3:125012942:125013043:-|CDS|ENSG00000173706|msi1|FALSE|bound_elsewhere (ssRNA)
RNA: GGGAGUUCUACAGUCCGACGAUCGCCUCUUAUGACCACUCCUGGCACCCUGUCAAGCACAGCAUCUCUGGUCACUGGCCCUAUAGCCGUACAGACUACAGCUGGAAAACAGCUCUCGCUGACCCAUCCUGAAAUACUAGUUCCCAACAGAGGAUUGAGCAUCA

The target in this experiment is T1, UNK ZnF1-6 (called full-length). The experiment can be described thus: nsRBNS (natural sequence RNA bind-n-seq); RBNS binding buffer (assumed for nsRBNS): 25 mM Tris pH 7.5, 150 mM KCl, 3 mM MgCl2, 0.01% Triton X-100, 500 ug/ml BSA, 20 U/ml SUPERase-In, 4 C; UNK is unkempt and MSI1 is Musashi-1; names of the RNAs are library labels; protein concentration not given here; high values mean tight binding.
Molecule B1 had a binding signal of 0.787 enrichment R.

As for B2, the binding signal is 0.604 enrichment R.

In turn, B3 yielded a binding signal of 0.581 enrichment R.

Molecule B4 gave a binding signal of 0.871 enrichment R.

As to B5, the binding signal was found to be 0.705 enrichment R.

On to B6, for which the binding signal came to 0.852 enrichment R.

The molecule B7 yielded a binding signal of 0.562 enrichment R.

In turn, B8 had a binding signal of 0.425 enrichment R.

The molecule B9 returned a binding signal of 0.871 enrichment R.

Consider B10, for which the binding signal was 0.785 enrichment R.

Consider B11, for which the binding signal amounted to 0.375 enrichment R.

Take B12: the binding signal turned out to be 0.516 enrichment R.

Consider B13, for which the binding signal stood at 0.408 enrichment R.

With B14, the binding signal is 0.783 enrichment R.
